The record followed here is a collection of fitness landscapes (doi:10.1126/science.1257360).

Some of the results follow.

B1: PhoQ; a variant is named by its letters at X, in order, P23837 (parent)
chain: MKKLLRLFFPLSLRVRFLLATAAVVLVLSLAYGMVALIGYSVSFDKTTFRLLRGESNLFYTLAKWENNKLHVELPENIDKQSPTMTLIYDENGQLLWAQRDVPWLMKMIQPDWLKSNGFHEIEADVNDTSLLLSGDHSIQQQLQEVREDDDDAEMTHSVAVNVYPATSRMPKLTIVVVDTIPVELKSSYMVWSWFIYVLSANLLLVIPLLWVAAWWSLRPIEALAKEVRELEEHNRELLNPATTRELTSLVRNLNRLLKSERERYDKYRTTLTDLTHSLKTPLXXLQXXLRSLRSEKMSVSDAEPVMLEQISRISQQIGYYLHRASMRGGTLLSRELHPVAPLLDNLTSALNKVYQRKGVNISLDISPEISFVGEQNDFVEVMGNVLDNACKYCLEFVEISARQTDEHLYIVVEDDGPGIPLSKREVIFDRGQRVDTLRPGQGVGLAVAREITEQYEGKIVAGESMLGGARMEVIFGRQHSAPKDE

In this assay the parent is B1. As to the kind of experiment: enrichment ratio after two sorts for PhoP signalling (ratio (wild type AVST 3.29)); higher = more functional. Particulars: with PhoP (E. coli).
As to NKPH, the enrichment ratio is ≤ 0.25. Take NERW: the enrichment ratio is ≤ 0.25. On to KHRN, for which the enrichment ratio was ≤ 0.25. Then AQSG, with 7.86. In the case of NKGK, the enrichment ratio is ≤ 0.25.

Take KATC: the enrichment ratio is ≤ 0.25.

Consider YAWG, for which the enrichment ratio was ≤ 0.25.

On to YMNK, for which the enrichment ratio is ≤ 0.25.

MAWS: the enrichment ratio is ≤ 0.25.

As for DNIG, the enrichment ratio is ≤ 0.25.

Regarding IQPP, the enrichment ratio is ≤ 0.25.

With LQIM, the enrichment ratio is ≤ 0.25. Then PNSC, with ≤ 0.25; and QHEF, with ≤ 0.25; and VQQD, with ≤ 0.25. In the case of AEEP, the enrichment ratio is ≤ 0.25. Consider VFYS, for which the enrichment ratio is ≤ 0.25.

Take LHNW: the enrichment ratio is ≤ 0.25. For LRIC, the enrichment ratio is ≤ 0.25.

With DNKD, the enrichment ratio is ≤ 0.25. For ALMA the value was ≤ 0.25.

With DNKP, the enrichment ratio was ≤ 0.25. Consider TECD, for which the enrichment ratio is ≤ 0.25. For the variant SDLI, the enrichment ratio was 9.48. Take LPNP: the enrichment ratio was ≤ 0.25. Regarding FHYF, the enrichment ratio is ≤ 0.25.

Regarding SSFS, the enrichment ratio was ≤ 0.25. For the variant TPIR, the enrichment ratio was ≤ 0.25. As to GPTK, the enrichment ratio was ≤ 0.25. As to YHQN, the enrichment ratio was ≤ 0.25. With HWEC, the enrichment ratio is ≤ 0.25. Turning to NSVN, the enrichment ratio was ≤ 0.25. For the variant EHLN, the enrichment ratio was ≤ 0.25. Regarding MEMW, the enrichment ratio is ≤ 0.25. For the variant LIHD, the enrichment ratio was ≤ 0.25. FKCM: the enrichment ratio was ≤ 0.25. For GQRF, the enrichment ratio was ≤ 0.25. Take YGWL: the enrichment ratio was ≤ 0.25. Regarding TGIR, the enrichment ratio was ≤ 0.25. On to ADVE, for which the enrichment ratio was ≤ 0.25.

On to ADAE, for which the enrichment ratio was ≤ 0.25. Turning to LHWS, the enrichment ratio was ≤ 0.25.

For NTQR, the enrichment ratio was ≤ 0.25.

On to FFFP, for which the enrichment ratio was ≤ 0.25. Turning to YAYQ, the enrichment ratio is ≤ 0.25. Take SCAP: the enrichment ratio is ≤ 0.25. In the case of EVEQ, the enrichment ratio was ≤ 0.25. Take EFME: the enrichment ratio is ≤ 0.25. In the case of HQHR, the enrichment ratio was ≤ 0.25. On to LMFS, for which the enrichment ratio was determined as 0.321.

Turning to AGAP, the enrichment ratio is ≤ 0.25. As to QPEC, the enrichment ratio was ≤ 0.25. TAKH: the enrichment ratio is ≤ 0.25. As to QRKN, the enrichment ratio is ≤ 0.25. MKGD: the enrichment ratio was ≤ 0.25. For the variant KFRL, the enrichment ratio is ≤ 0.25. As for QQND, the enrichment ratio is ≤ 0.25. Then PYCW, with ≤ 0.25; and LNGV, with ≤ 0.25; and WEWA, with ≤ 0.25.

MGFN: the enrichment ratio was 11.6.

Take PCVF: the enrichment ratio is ≤ 0.25.

For the variant LTNF, the enrichment ratio is ≤ 0.25. With LPWM, the enrichment ratio was ≤ 0.25.

Turning to RSYQ, the enrichment ratio is ≤ 0.25. Regarding PNSV, the enrichment ratio was ≤ 0.25. On to KSMH, for which the enrichment ratio was ≤ 0.25. Turning to THVG, the enrichment ratio was ≤ 0.25. Take PYWY: the enrichment ratio was ≤ 0.25. For WAGM, the enrichment ratio is ≤ 0.25. As for EFLT, the enrichment ratio is ≤ 0.25. On to PKIE, for which the enrichment ratio was ≤ 0.25. With DENL, the enrichment ratio was ≤ 0.25.

For the variant VIEH, the enrichment ratio is ≤ 0.25. TWVT: the enrichment ratio was ≤ 0.25. With IYLT, the enrichment ratio is ≤ 0.25. On to IAHV, for which the enrichment ratio is ≤ 0.25. As for HNQG, the enrichment ratio was ≤ 0.25. For TRCL, the enrichment ratio was found to be 7.14.

Consider RHGM, for which the enrichment ratio is ≤ 0.25. Take NVCM: the enrichment ratio is ≤ 0.25. As for RPYI, the enrichment ratio was ≤ 0.25.

NHYY: the enrichment ratio was ≤ 0.25.

On to AKIC, for which the enrichment ratio was ≤ 0.25. For the variant MFPM, the enrichment ratio was ≤ 0.25.

On to YIQG, for which the enrichment ratio is ≤ 0.25. For HKSA, the enrichment ratio is ≤ 0.25. Turning to EEFL, the enrichment ratio was ≤ 0.25.

In the case of REAR, the enrichment ratio was ≤ 0.25.

Regarding RESC, the enrichment ratio is ≤ 0.25. As to HSQD, the enrichment ratio is ≤ 0.25. Take HWRW: the enrichment ratio was ≤ 0.25. For AVTT, the enrichment ratio is ≤ 0.25. In the case of TKQE, the enrichment ratio came out at 16.5.

Turning to DHWF, the enrichment ratio was ≤ 0.25.

For SRHE, the enrichment ratio was ≤ 0.25.

For the variant PDGP, the enrichment ratio is ≤ 0.25. Regarding WRWS, the enrichment ratio was ≤ 0.25. Take FFEK: the enrichment ratio is ≤ 0.25.

Consider VQES, for which the enrichment ratio is ≤ 0.25. Consider FQWM, for which the enrichment ratio was ≤ 0.25. As to NPKE, the enrichment ratio was ≤ 0.25. Consider TMEY, for which the enrichment ratio was ≤ 0.25. As to QGVW, the enrichment ratio was ≤ 0.25. Then FHFM, with ≤ 0.25; and LSPI, with ≤ 0.25; and GWHD, with ≤ 0.25.

HHRS: the enrichment ratio was ≤ 0.25. WLKL: the enrichment ratio was ≤ 0.25. For NDYW, the enrichment ratio was ≤ 0.25. Take QRYD: the enrichment ratio is ≤ 0.25. Regarding SCIT, the enrichment ratio was determined as 1.21. Regarding MCNK, the enrichment ratio was ≤ 0.25. With IFYV, the enrichment ratio was ≤ 0.25.

For the variant EPIR, the enrichment ratio is ≤ 0.25. Consider EICF, for which the enrichment ratio is ≤ 0.25. With FLCL, the enrichment ratio is 2.02. Take FYSE: the enrichment ratio stood at 1.54. Consider WGHQ, for which the enrichment ratio was ≤ 0.25. For the variant DMWS, the enrichment ratio is ≤ 0.25.

Turning to FKNV, the enrichment ratio was ≤ 0.25.

With KMAQ, the enrichment ratio is ≤ 0.25.

With WDLY, the enrichment ratio is ≤ 0.25. For LAHH the value was ≤ 0.25; for FGHL, ≤ 0.25; for DRAK, ≤ 0.25. For QHSV the value was ≤ 0.25; for RVDT, ≤ 0.25; for GFDF, ≤ 0.25. As for GNRK, the enrichment ratio is ≤ 0.25.

In the case of IVMW, the enrichment ratio is ≤ 0.25. In the case of KAIQ, the enrichment ratio was ≤ 0.25. In the case of NYMK, the enrichment ratio was ≤ 0.25. Turning to VPGA, the enrichment ratio was ≤ 0.25.

For QTNK, the enrichment ratio was ≤ 0.25. Take NRNH: the enrichment ratio is ≤ 0.25. For the variant ILIE, the enrichment ratio was ≤ 0.25.

For the variant VPIQ, the enrichment ratio was ≤ 0.25. Consider HRWE, for which the enrichment ratio is ≤ 0.25. For AERM the value was ≤ 0.25; for HFMF, ≤ 0.25; for PIAM, ≤ 0.25.

As to RPRQ, the enrichment ratio is ≤ 0.25. Then TNEA, with ≤ 0.25; and HWAG, with ≤ 0.25; and YRAS, with ≤ 0.25. GWSE: the enrichment ratio is ≤ 0.25. Turning to GGGH, the enrichment ratio is ≤ 0.25. As for WNPC, the enrichment ratio is ≤ 0.25. Then DNCV, with ≤ 0.25; and LSCI, with 0.282; and DFCN, with ≤ 0.25.

Regarding FKSV, the enrichment ratio was ≤ 0.25.
